# Measured values: the supplement of paper PMC8728848
# The list shows a part of the results.
# B1: PX9961C-bth-497-22-497 (Bacteroides thetaiotaomicron) (protein)
# chain: DWLDLNTTSSVETGQAIVTLDDAQIALNGIYRLASGHSYYGDNYWYYGDCRAADVQARITKGDGKRVSPYYEYNVLASDNLNIVLPWNTVYKVIRQTNNLIQKIESGSIQSSDTKELNRIKSEALVMRGLSLFNLTRLFGMPYTNDKGASLGVPIETSPSDPTHKPSRSTVAQCYEQVVSDMSNALSGLRQETSNGYINYWAAQALLSRVYLNMGEYQKAYDAATDVIKNNGGRYQLYSYEEYPNVWGQDFQSESLFELYITLSEPSGGTGGEGAPMVYANEATVDWNNLILSEDFLNLLNEDPKDVRHCLTKESVIENNTGLPAAAMHEKVYLAKFPGKTGDDPKTNNICIIRLSEVYLNAAEAGLKKGTDIEEAQGYLNDIISRRTTDTSQQVSTETFTLDRILKERRKELVGEGEVFYDYLRNGLAIERKGSWHLETLKASNAQKIEATDLRIALPIPQSEIDANPNIQQNPR
# Tests used:
# Experiment in all cases: glycan array binding signal (z-score within array); higher = stronger binding
# Settings in all cases: glycan notation: IUPAC condensed, linker removed
# [1] = target: Neu5Ac(a2-6)Gal(b1-4)GlcNAc(b1-2)Man(a1-3)[Man(a1-6)]Man(b1-4)GlcNAc(b1-4)GlcNAc
# How it was run: (§1)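 The Consortium for Functional Glycomics database supplied 3228 glycan arrays, of which those lacking an available protein sequence were dropped. The binding signal, a within-array Z-score, was averaged across arrays of the same protein sequence and across linkers. Negative scores can be read as non-binding.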
# [2] = target: Neu5Ac(a2-6)Gal(b1-4)GlcNAc(b1-2)Man(a1-3)[Neu5Ac(a2-3)Gal(b1-4)GlcNAc(b1-2)Man(a1-6)]Man(b1-4)GlcNAc(b1-4)GlcNAc
# How it was run: as §1
# [3] = target: Neu5Ac(a2-6)Gal(b1-4)GlcNAc(b1-2)Man(a1-3)[Neu5Ac(a2-6)Gal(b1-4)GlcNAc(b1-2)Man(a1-6)]Man(b1-4)GlcNAc(b1-4)GlcNAc
# How it was run: as §1
# [4] = target: Neu5Ac(a2-6)Gal(b1-4)GlcNAc(b1-2)Man(a1-3)[Neu5Ac(a2-6)Gal(b1-4)GlcNAc(b1-2)Man(a1-6)]Man(b1-4)GlcNAc(b1-4)[Fuc(a1-6)]GlcNAc
# How it was run: as §1
# [5] = target: Neu5Ac(a2-6)Gal(b1-4)GlcNAc(b1-2)Man(a1-6)Man(b1-4)GlcNAc(b1-4)GlcNAc
# How it was run: as §1
# [6] = target: Neu5Ac(a2-6)Gal(b1-4)GlcNAc(b1-2)Man(a1-6)[Gal(b1-4)GlcNAc(b1-2)Man(a1-3)]Man(b1-4)GlcNAc(b1-4)GlcNAc
# How it was run: as §1
# [7] = target: Neu5Ac(a2-6)Gal(b1-4)GlcNAc(b1-2)Man(a1-6)[GlcNAc(b1-2)Man(a1-3)]Man(b1-4)GlcNAc(b1-4)GlcNAc
# How it was run: as §1
# [8] = target: Neu5Ac(a2-6)Gal(b1-4)GlcNAc(b1-2)Man(a1-6)[Man(a1-3)]Man(b1-4)GlcNAc(b1-4)GlcNAc
# How it was run: as §1
# [9] = target: Neu5Ac(a2-6)Gal(b1-4)GlcNAc(b1-2)[Neu5Ac(a2-6)Gal(b1-4)GlcNAc(b1-4)]Man(a1-3)[GlcNAc(b1-4)][Neu5Ac(a2-6)Gal(b1-4)GlcNAc(b1-2)[Neu5Ac(a2-6)Gal(b1-4)GlcNAc(b1-6)]Man(a1-6)]Man(b1-4)GlcNAc(b1-4)GlcNAc
# How it was run: as §1
# [10] = target: Neu5Ac(a2-6)Gal(b1-4)GlcNAc(b1-2)[Neu5Ac(a2-6)Gal(b1-4)GlcNAc(b1-4)]Man(a1-3)[GlcNAc(b1-4)][Neu5Ac(a2-6)Gal(b1-4)GlcNAc(b1-4)Man(a1-6)]Man(b1-4)GlcNAc(b1-4)GlcNAc
# How it was run: as §1
# [11] = target: Neu5Ac(a2-6)Gal(b1-4)GlcNAc(b1-2)[Neu5Ac(a2-6)Gal(b1-4)GlcNAc(b1-6)]Man(a1-6)[Neu5Ac(a2-6)Gal(b1-4)GlcNAc(b1-2)Man(a1-3)][GlcNAc(b1-4)]Man(b1-4)GlcNAc(b1-4)GlcNAc
# How it was run: as §1
# [12] = target: Neu5Ac(a2-6)Gal(b1-4)GlcNAc(b1-3)Gal(b1-3)GlcNAc
# How it was run: as §1
# [13] = target: Neu5Ac(a2-6)Gal(b1-4)GlcNAc(b1-3)Gal(b1-4)GlcNAc
# How it was run: as §1
# [14] = target: Neu5Ac(a2-6)Gal(b1-4)GlcNAc(b1-3)Gal(b1-4)GlcNAc(b1-2)Man(a1-3)[Neu5Ac(a2-6)Gal(b1-4)GlcNAc(b1-3)Gal(b1-4)GlcNAc(b1-2)Man(a1-6)]GalNAc
# How it was run: as §1
# [15] = target: Neu5Ac(a2-6)Gal(b1-4)GlcNAc(b1-3)Gal(b1-4)GlcNAc(b1-3)Gal(b1-4)GlcNAc
# How it was run: as §1
# [16] = target: Neu5Ac(a2-6)Gal(b1-4)GlcNAc(b1-3)Gal(b1-4)GlcNAc(b1-3)Gal(b1-4)GlcNAc(b1-2)Man(a1-3)[Neu5Ac(a2-6)Gal(b1-4)GlcNAc(b1-3)Gal(b1-4)GlcNAc(b1-3)Gal(b1-4)GlcNAc(b1-2)Man(a1-6)]GalNAc
# How it was run: as §1
# [17] = target: Neu5Ac(a2-6)Gal(b1-4)GlcNAc(b1-3)Gal(b1-4)GlcNAc(b1-3)GalNAc
# How it was run: as §1
# [18] = target: Neu5Ac(a2-6)Gal(b1-4)GlcNAc(b1-3)Gal(b1-4)GlcNAc(b1-3)[Neu5Ac(a2-6)Gal(b1-4)GlcNAc(b1-3)Gal(b1-4)GlcNAc(b1-6)]GalNAc
# How it was run: as §1
# [19] = target: Neu5Ac(a2-6)Gal(b1-4)GlcNAc(b1-3)Gal(b1-4)GlcNAc(b1-6)[Gal(b1-3)]GalNAc
# How it was run: as §1
# [20] = target: Neu5Ac(a2-6)Gal(b1-4)GlcNAc(b1-3)Gal(b1-4)[Fuc(a1-3)]GlcNAc(b1-3)Gal(b1-4)[Fuc(a1-3)]GlcNAc
# How it was run: as §1
# [21] = target: Neu5Ac(a2-6)Gal(b1-4)GlcNAc(b1-3)GalNAc
# How it was run: as §1
# [22] = target: Neu5Ac(a2-6)Gal(b1-4)GlcNAc(b1-3)[Neu5Ac(a2-6)Gal(b1-4)GlcNAc(b1-6)]GalNAc
# How it was run: as §1
# [23] = target: Neu5Ac(a2-6)Gal(b1-4)GlcNAc(b1-6)GalNAc
# How it was run: as §1
# [24] = target: Neu5Ac(a2-6)Gal(b1-4)GlcNAc(b1-6)[Gal(b1-3)GlcNAc(b1-3)]Gal(b1-4)Glc
# How it was run: as §1
# [25] = target: Neu5Ac(a2-6)Gal(b1-4)GlcNAc(b1-6)[Gal(b1-3)]GalNAc
# How it was run: as §1
# [26] = target: Neu5Ac(a2-6)Gal(b1-4)GlcNAc6S
# How it was run: as §1
# Neu5Ac(a2-6)GalNAc = target: Neu5Ac(a2-6)GalNAc
# How it was run: as §1
# [27] = target: Neu5Ac(a2-6)GalNAc(b1-4)GlcNAc
# How it was run: as §1
# [28] = target: Neu5Ac(a2-6)GalNAc(b1-4)GlcNAc6S
# How it was run: as §1
# [29] = target: Neu5Ac(a2-6)GlcNAc(b1-4)GlcNAc
# How it was run: as §1
# [30] = target: Neu5Ac(a2-6)GlcNAc(b1-4)GlcNAc(b1-4)GlcNAc
# How it was run: as §1
binder,measurement,setting,value
B1,glycan array binding signal (z-score),[1],-0.007
same,glycan array binding signal (z-score),[2],0.593
same,glycan array binding signal (z-score),[3],-0.348
same,glycan array binding signal (z-score),[4],-0.505
same,glycan array binding signal (z-score),[5],0.089
same,glycan array binding signal (z-score),[6],-0.338
same,glycan array binding signal (z-score),[7],-0.282
same,glycan array binding signal (z-score),[8],0.075
same,glycan array binding signal (z-score),[9],0.274
same,glycan array binding signal (z-score),[10],0.553
same,glycan array binding signal (z-score),[11],0.254
same,glycan array binding signal (z-score),[12],-0.423
same,glycan array binding signal (z-score),[13],0.866
same,glycan array binding signal (z-score),[14],-0.197
same,glycan array binding signal (z-score),[15],-0.506
same,glycan array binding signal (z-score),[16],0.689
same,glycan array binding signal (z-score),[17],-0.389
same,glycan array binding signal (z-score),[18],0.127
same,glycan array binding signal (z-score),[19],0.239
same,glycan array binding signal (z-score),[20],0.365
same,glycan array binding signal (z-score),[21],-0.051
same,glycan array binding signal (z-score),[22],-0.532
same,glycan array binding signal (z-score),[23],-0.533
same,glycan array binding signal (z-score),[24],-0.065
same,glycan array binding signal (z-score),[25],0.076
same,glycan array binding signal (z-score),[26],-0.304
same,glycan array binding signal (z-score),Neu5Ac(a2-6)GalNAc,-0.449
same,glycan array binding signal (z-score),[27],-0.198
same,glycan array binding signal (z-score),[28],-0.05
same,glycan array binding signal (z-score),[29],-0.069
same,glycan array binding signal (z-score),[30],-0.152
